Test results reported in the supplement of paper PMC7266297.
Counter-ions that a name gives are not always drawn. The list shows a part of the results. Repeats are few or missing, and single values can be far off.

Assays:
[1] = system: KB-3-1; assay: growth inhibition relative to DMSO control (SRB); cervical cancer cells: KB-3-1 is the parent and KB-V1 overexpresses MDR1; SRB is the sulforhodamine B stain; higher = more growth inhibition; conditions: 1 µM; 72 h
[2] = system: KB-V1; assay: as above; conditions: 1 µM; 72 h
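Note: Read-out is SRB optical density at 490 nm, with the control being wells given 0.5% DMSO vehicle, and compound added one day after cells were plated.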

SMILES	growth inhibition [1]	growth inhibition [2]
CC(C)C[C@@H](C(=O)N[C@H](C(=O)OC1CCCC1)c1ccccc1)[C@H](O)C(=O)NO [Tosedostat (CHR2797)]	49.2%	20%
Cc1cccc(-c2[nH]c(C(C)(C)C)nc2-c2ccc3nccnc3c2)n1	54.1%	57.9%
Cc1ccc(NC(=O)c2cccc(N(C)C)c2)cc1NC(=O)c1ccc(O)cc1	< 0%	< 0%
CC#C[C@]1(O)CC[C@H]2[C@@H]3CCC4=CC(=O)CCC4=C3[C@@H](c3ccc(N(C)C)cc3)C[C@@]21C [Mifepristone]	< 0%	8.62%
CCOC(=O)c1ccc(OC(=O)CCCCCNC(=N)N)cc1 [Gabexate Mesylate]	84.9%	96.3%
COc1cc2c(Oc3ccc4[nH]c(C)cc4c3F)ncnc2cc1OCCCN1CCCC1 [Cediranib (AZD2171)]	35.9%	42.5%
Nc1ncn([C@H]2C[C@H](O)[C@@H](CO)O2)c(=O)n1 [Decitabine]	61.3%	51.1%
CCOc1ccc(NC(C)=O)cc1 [Phenacetin]	27.8%	< 0%
Cc1onc(-c2ccccc2)c1-c1ccc(S(N)(=O)=O)cc1 [Valdecoxib]	23%	7.06%
O=C1c2ccccc2C(=O)c2c1ccc(O)c2O [Alizarin]	28.7%	5.32%
CNCc1ccc(C)c(NC(=O)c2ccc(Nc3nc(-c4ccccc4)c4ccccc4n3)cc2)c1	18.7%	0.355%
COC(=O)N[C@H](C(=O)N[C@@H](Cc1ccccc1)[C@@H](O)CN(Cc1ccc(-c2ccccn2)cc1)NC(=O)[C@@H](NC(=O)OC)C(C)(C)C)C(C)(C)C [Atazanavir Sulfate]	16.1%	35.2%
O=C(NCCO[N+](=O)[O-])c1cccnc1 [Nicorandil]	48.5%	26.1%
Cc1nccn1CC1CCc2c(c3ccccc3n2C)C1=O (stereo not given) [Ondansetron HCl]	9.21%	29.3%
CN1CCN(C(c2ccccc2)c2ccccc2)CC1 [Cyclizine 2HCl]	12.8%	18.6%
C/C(=N\NC(=S)N1CCC1)c1ccccn1	90.9%	87.2%
CN1CC2c3ccccc3Oc3ccc(Cl)cc3C2C1 (stereo not given) [Asenapine]	8.22%	28.8%
Cn1cc(-c2cnn3c(N)c(Br)c([C@@H]4CCCNC4)nc23)cn1	< 0%	< 0%
Nc1nc(N)c2nc(-c3ccccc3)c(N)nc2n1 [Triamterene]	45.6%	14.7%
CNC(=O)[C@H](Cc1c[nH]c2ccccc12)NC(=O)[C@@H](CC(=O)NO)CC(C)C [Ilomastat (GM6001, Galardin)]	9.29%	< 0%
